This note sets out measurements from patent US20160192643A1, “NEW ANTIFUNGAL COMPOSITION FOR TREATMENT OF SOIL” (CERADIS B.V., priority 2013, published 2016).

This assay concerns Pythium aphanidermatum. Kind of assay: Polyelectrolyte formulation against Pythium aphanidermatum in Chrysanthemum soil. As to conditions: end of the trial, after 44 days; percentage of the bottom of the crates covered with roots.

Turning to `C[C@@H]1C/C=C/C=C/C=C/C=C/[C@H](O[C@@H]2O[C@H](C)[C@@H](O)[C@H](N)[C@@H]2O)C[C@@H]2O[C@](O)(C[C@@H](O)C[C@H]3O[C@@H]3/C=C/C(=O)O1)C[C@H](O)[C@H]2C(=O)O` [Natamycin, natamycin], the “rooting in percentage at the bottom side of the crates” value is listed as 8.8%.
